Data on 42 compounds can be found in ChEMBL document CHEMBL4888484, “Replenishing the malaria drug discovery pipeline: Screening and hit evaluation of the MMV Hit Generation Library 1 (HGL1) against asexual blood stage Plasmodium falciparum ,using a nano luciferase reporter read-out” (2022).

Out of some 150,000 compounds screened, about 540 (0.36%) showed an effect of 50% or more. The list shows a part of the results.

This test deals with Plasmodium falciparum. The experiment in a line: Primary screen in NF54 nanoGlo assay, in single point, at 2uM, 72h; a lower Z score goes with more inhibition. In kind it is functional, Erythrocyte. The following applies: timepoint 72 hour.
`NC(=NOCCN1CC2CCC(C1)O2)c1ccc(N2CCCCC2)nc1`: the % Inhibition – broadly, the change of the read-out against control, counted positive when it falls – is on record as -9% and the Z score worked out at 0.79.

For the compound `O=C1c2ccccc2C(=O)N1CN1CCc2ccccc2C1`, the “% Inhibition” value was -11% and the Z score was 1.39.

Turning to `Cc1nc(C(=O)N[C@@H]2c3ccccc3CC[C@@H]2O)c(C)[nH]1`, the “% Inhibition” value is reported as -6% and the Z score stood at 0.77.

Take `N#Cc1ccnc(NCC2(O)CCCC(C(F)(F)F)C2)c1` (centres undefined): the “% Inhibition” value is listed as -5% and the Z score was 0.75.

Regarding `CCn1ccc2ccn(CCNC(=O)c3cc4cccc(OC)c4o3)c(=O)c21`, the “% Inhibition” value was determined as 0% and the Z score is given as -0.06.

Turning to `CC1(C)C(NC(=O)NCCOCC2CC2)C2CCOC21` (centres undefined), the “% Inhibition” value was -15% and the Z score is 2.78.

On to `O=S(=O)(Cc1c(Cl)cccc1Cl)Nc1cccnn1`, for which the “% Inhibition” value is on record as 1% and the Z score was -0.14.

Take `CC(C)NC(=O)Cc1cccc(N(Cc2ccc(F)cc2)C(=O)Cc2cccs2)c1`: the “% Inhibition” value was -5% and the Z score stood at 0.89.

Take `CN(C)C(=O)C1CCN([C@H]2CCc3ccccc3NC2=O)CC1`: the “% Inhibition” value is given as -4% and the Z score stood at 0.7.

Regarding `O=C(NCCN1CCOCC1)[C@H]1CCCN(c2ncccc2-c2noc(C3CCC3)n2)C1`, the “% Inhibition” value is given as -12% and the Z score is recorded as 1.8.

Consider `Cc1c(C(=O)O)sc2ncnc(N3CCCCCCC3)c12`, for which the “% Inhibition” value stood at 8% and the Z score was -1.49.

In the case of `O=C(NC[C@@]12CNC[C@]1(C(F)(F)F)C2)c1cc2c(o1)CCCC2`, the “% Inhibition” value is -2% and the Z score is 0.35.

On to `Cc1cccc(CN2CCC(CNC(=O)c3cc4c(=O)n(C)c(=O)n(C)c4s3)CC2)c1`, for which the “% Inhibition” value stood at 8% and the Z score is on record as -1.31.

With `COCc1cc(CNc2nc3c(c(=O)[nH]2)Cc2ccccc2OC3)n[nH]1`, the “% Inhibition” value is -4% and the Z score is listed as 0.52.

Consider `CN1CCN(C(=O)[C@@H]2Cc3ccccc32)CC1`, for which the “% Inhibition” value is listed as 29% and the Z score was -4.26.

In the case of `Nc1nc2c(c(-c3ccccc3)n1)CN(C(=O)CCc1c[nH]c3ccccc13)C2`, the “% Inhibition” value was -11% and the Z score was determined as 2.12.

With `COc1ccc2ccccc2c1-c1nc2c(cnn2[C@@H](C)C2CC2)[nH]1`, the “% Inhibition” value is on record as 10% and the Z score was -1.39.

As to `CC(=O)Nc1nnc(-c2ccsc2)o1`, the “% Inhibition” value is -7% and the Z score is listed as 1.09.

For the compound `COCCN1CCN(c2nc(-c3cccs3)c3c(N)n(-c4cccc(C)c4)nc3n2)CC1`, the “% Inhibition” value was -14% and the Z score is 1.97.

Take `Cc1cccc2sc(N(CCN(C)C)C(=O)c3ccc(S(=O)(=O)N(C)C[C@H]4CCCO4)cc3)nc12`: the “% Inhibition” value came to 19% and the Z score is -2.4.

For the compound `CN(C[C@H]1COc2ccccc2O1)C(=O)CN1C(=O)CCNC1=O`, the “% Inhibition” value is reported as 0% and the Z score is 0.06.

`COc1ccc(S(=O)(=O)N2CC(OCc3ccccc3)C2)cc1OC`: the “% Inhibition” value is listed as -14% and the Z score was determined as 2.16.

`COCCN(Cc1c(-c2ccccc2)nn(C)c1Oc1ccc(F)cc1)C[C@@H](O)Cc1ccccc1`: the “% Inhibition” value was -9% and the Z score amounted to 1.34.

For `Cc1cc(NC(=O)c2ccc3c(c2)C(=O)N(C[C@H]2CCCO2)C3=O)no1`, the “% Inhibition” value was -8% and the Z score is on record as 1.45.

On to `COCCN1C(=O)N[C@@H]2CN(C(=O)c3ccnn3C3CCC3)CC[C@@H]21`, for which the “% Inhibition” value was -4% and the Z score is on record as 0.45.

Consider `COc1ccc(N2C(=O)c3cc(C(C)(C)C)nn3C[C@@]2(C)C(=O)NC2CCCCCC2)cc1`, for which the “% Inhibition” value was -6% and the Z score was 0.92.

On to `c1ccc2c3c(ccc2c1)[C@@H](NCc1cc[nH]n1)CCCO3`, for which the “% Inhibition” value is listed as -8% and the Z score stood at 1.51.

`CN1CCC(C)(C(=O)NCCC[C@H]2CCOC2)CC1`: the “% Inhibition” value was -11% and the Z score came out at 2.14.

Turning to `COc1cc([C@H]2CC(=O)Nc3cccc4c3c2cn4Cc2cccc(F)c2)ccc1O`, the “% Inhibition” value is -6% and the Z score was determined as 1.01.

For the compound `CC1(c2cc(-c3ccncc3)c(C#N)c(N)n2)CC1`, the “% Inhibition” value is reported as -1% and the Z score is listed as 0.07.

For `O=C(Cc1cccc(F)c1)N1CCCN(C(=O)[C@H]2CCCOC2)CC1`, the “% Inhibition” value is on record as -2% and the Z score was 0.43.

Take `O=C(CN1C(=O)c2ccccc2C1=O)N1CCCN(C(=O)CN2C(=O)c3ccccc3C2=O)CC1`: the “% Inhibition” value is -7% and the Z score is 0.9.

On to `O=C(NCCC(=O)N1CCC[C@H](c2nc(=O)[nH][nH]2)C1)C1CCCCC1`, for which the “% Inhibition” value was determined as 30% and the Z score is on record as -3.34.

Regarding `Cc1nn(CC(=O)N[C@H]2CCN(Cc3cscn3)C[C@@H]2O)cc1Cl`, the “% Inhibition” value is listed as -20% and the Z score was found to be 3.98.

For `Cc1nn(-c2nncc(-c3ccc(Cl)cc3)n2)c2c1[C@@H](c1cc(F)ccc1F)CC(=O)N2`, the “% Inhibition” value amounted to 28% and the Z score is recorded as -2.32.

Regarding `O=C(Nc1ccc(F)cc1)[C@@H]1CC(O)=Nc2c(-c3ccccc3)cnn21`, the “% Inhibition” value is on record as -9% and the Z score is given as 1.69.

As for `Cc1c(Cl)cccc1N1C(=O)C2C3C=CC(C3=C3CCCCC3)C2C1=O` (centres undefined), the “% Inhibition” value was 3% and the Z score is on record as -0.38.

Regarding `c1cc([C@H]2CCOC2)ccc1OCc1noc2c1CCCC2`, the “% Inhibition” value is recorded as -17% and the Z score came to 3.

In the case of `O=C(NCC(=O)N1CCN(c2ccc(F)cc2)CC1)OCc1ccccc1`, the “% Inhibition” value was -12% and the Z score is given as 1.8.

Turning to `O=C(O)[C@@H]1CCCN1C(=O)CCN1CCCC1=O`, the “% Inhibition” value is recorded as -2% and the Z score stood at 0.25.

With `CN(C)C(=O)c1cn(C2CN(Cc3ccc(F)cc3F)C2)nn1`, the “% Inhibition” value is listed as -12% and the Z score came to 2.26.

`CC1CCCNC1CNC(=O)OC(C)(C)C` (centres undefined): the “% Inhibition” value is -5% and the Z score is reported as 0.64.
